In PubChem BioAssay AID1240 (Sanford-Burnham Center for Chemical Genomics, 2008):
The whole screen tested about 50,000 compounds, of which about 800 (1.6%) showed an effect of 50% or more. Some of the results follow.

target: Bcl-2-like protein 10 (Homo sapiens) (UniProt Q9HD36); assay: TR3 peptide-Bcl-B binding displacers, biochemical primary FP assay, phenotype converters (AID 1240); conditions: GST-Bcl-B / FITC-TR3 peptide fluorescence polarization; stronger effect = higher value; compound at 3.75 mg/L;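 further: 0% = Bcl-B with tracer peptide and DMSO and 100% = tracer peptide lacking Bcl-B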
Chain of UniProt Q9HD36 (Q9HD36 whole entry, looked up): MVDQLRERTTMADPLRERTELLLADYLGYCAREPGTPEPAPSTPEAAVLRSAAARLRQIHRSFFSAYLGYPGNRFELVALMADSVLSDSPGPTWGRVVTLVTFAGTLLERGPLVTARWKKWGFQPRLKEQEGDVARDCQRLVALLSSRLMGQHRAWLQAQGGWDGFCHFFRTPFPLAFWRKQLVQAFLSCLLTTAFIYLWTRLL

SMILES | displacement [%]
O=C(O)c1ccccc1N=Nc1cc(-c2ccccc2)oc1O | -49.9
COc1ccc(N(CC(=O)NCc2ccccn2)S(=O)(=O)c2ccc(OC)c(OC)c2)cc1 | -15
O=C(NC(c1ccccc1)c1ccccc1)C(=O)c1c[nH]c2ccccc12 | 10.3
COc1ccc(C2/C(=C(\O)c3ccc(Cl)cc3)C(=O)C(=O)N2c2cccnc2)cc1 (configuration not stated) | 6.2
COc1ccc(/C=C2\C(=O)NC(=O)N(c3ccccc3Cl)C2=O)cc1Br | 5.7
CC(=O)c1cccc(NC(=O)COc2ccc(C)cc2C)c1 | 0
Cc1ccc2nsnc2c1NC(=O)c1ccc(-c2ccc(Cl)cc2Cl)o1 | 41.5
Cc1ccc(C(=O)N2CCN(Cc3ccccc3)CC2)cc1 | 10.2
CCOc1ccc(N(CC(=O)NCc2ccc(Cl)cc2)S(C)(=O)=O)cc1 | -2.6
NC(=O)c1c(N)sc2c1CCCCCC2 | -1.2
COCCCNC(=O)C(=O)Nc1ccc(Cl)cc1C | 8.5
NC1=NC(=O)/C(=C/c2ccc(OC(=O)c3ccco3)cc2)S1 | 3.9
CCOC(=O)C1=C(c2ccccc2)N=c2s/c(=C\c3cccc(O)c3)c(=O)n2C1c1cccc(OC)c1OC (configuration not stated) | 7.6
CC1=C(C(=O)OCCOc2ccccc2)C(c2ccc([N+](=O)[O-])cc2)C2=C(CCCC2=O)N1 (configuration not stated) | -10.3
Cc1cccc(OCC(=O)Nc2ccc(N(C)C)cc2)c1 | 12.1
NC(=O)c1ccc(N=Cc2ccccc2[N+](=O)[O-])cc1 | -12.2
CCCOC(=O)c1ccc(NC(=O)c2cc3ccccc3oc2=O)cc1 | 4.1
O=C(COc1ccccc1F)Nc1nc(-c2cccs2)c(NC(=O)c2ccccc2)s1 | 14.6
C/C(=C\C(=O)c1ccc(Cl)cc1)Nc1cc(Cl)cc(Cl)c1 | -5.9
CCOC(=O)c1cccc(NC(=O)/C=C/c2ccccc2)c1 | 15.5
C=CCOc1c(Cl)cc(/C=C2\C(=O)NN(c3ccc(Cl)c(Cl)c3)C2=O)cc1OC | 10.3
O=[N+]([O-])c1ccc(NN=C2CCCCC2)c([N+](=O)[O-])c1 | 13
O=C(Nc1ccccc1C(=O)Nc1ccccc1Cl)c1ccccc1Cl | 1.4

SMILES | displacement [%]
Cc1oc2c(CN3CC4(C)CC3CC(C)(C)C4)c(O)ccc2c(=O)c1-c1nc2ccccc2s1 (configuration not stated) | 11.2
COc1ccc(CC(c2nc3ccccc3[nH]2)C(C)c2nc3ccccc3[nH]2)cc1 (configuration not stated) | 8
O=C1NC(=O)C(=Cc2ccc(Cl)c([N+](=O)[O-])c2)C(=O)N1 | -18.5
COc1ccc(/C=N/N2C(=O)CSC2=S)cc1 | 31.4
O=C(Nc1cccc(-c2nc3ccccc3[nH]2)c1)c1ccccc1Cl | -3.8
CCOC(=O)C1=C(N)Oc2cc(O)ccc2C1c1ccccc1 (configuration not stated) | -8.2
C(=C\CSc1nc2ccccc2[nH]1)/CSc1nc2ccccc2[nH]1 | 1.8
COc1ccc(N2C(=O)CCC([N+](=O)[O-])=C2C)cc1 | -4.2
C/C(CN1C(=O)c2ccccc2C1=O)=N\NC(=O)c1cccc(Cl)c1 | -4.6
O=C(O)/C=C(/c1ccccc1)C(F)(F)F | 2.6
O=C(Nc1ccc(F)c(Cl)c1)c1ccncc1 | 7.1
Cc1cc(Cl)cc(Cl)c1OCCCCN1CCCCC1 | 6.3
Cc1ccc(F)c(N/C=C/C(=O)c2ccc(Br)cc2)c1 | 7
COc1cccc(C2NC(=S)NC(C)=C2C(=O)Nc2ccccc2OC)c1 (configuration not stated) | -4
CCOc1ccc(C=NN2CCN(c3ccccn3)CC2)cc1 | -12.7
COc1ccc(C(=O)N2CCN(c3ccc(F)cc3)CC2)cc1[N+](=O)[O-] | 12.4
O=C1CSC(=O)N1CCN1C(=O)S/C(=C\c2ccc(Br)cc2)C1=O | -8.2
Cc1cc(C)n(S(=O)(=O)c2ccc3c(c2)C(=O)c2cc(S(=O)(=O)n4nc(C)cc4C)ccc2-3)n1 | 18.4
CCOc1ccccc1CN(CCc1ccc2c(c1)OCO2)Cc1ccc(OC)c(OC)c1OC | -1
CCOc1ccc(NC(=O)CC2SC(N)=NC2=O)cc1 (configuration not stated) | 0.1
O=S(=O)(NCCSc1nc2ccccc2[nH]1)c1ccccc1 | -7.6
CC1(C)CC(NC(=O)c2ccco2)CC(C)(CNC(=O)c2ccco2)C1 (configuration not stated) | 36.9
COc1ccc(N2C(=O)NC(=O)/C(=C/c3cccc(OCCOc4ccccc4)c3)C2=O)cc1 | 11.4

SMILES | displacement [%]
O=C(O)CCC(=O)Nc1ccc(Cc2ccc(NC(=O)CCC(=O)O)c(O)c2)cc1O | -1.9
CCOC(=O)CNC(=O)c1ccc([N+](=O)[O-])cc1 | 10.9
O=C(Nc1ccccc1C(=O)NCc1ccco1)c1ccccc1Br | -4.2
Cc1cc(N2C(=O)NC(=O)/C(=C\c3ccc(N4CCCCC4)o3)C2=O)ccc1Br | 55.5
Cc1ccccc1NS(=O)(=O)c1ccc(NC(=O)c2ccc([N+](=O)[O-])cc2)cc1 | -1.3
CCOc1ccc2ccc(OCC)c(/C=C3/NC(=S)NC3=O)c2c1 | 4.4
CSc1nc2c(c(=O)n1C1CCOC(C)(C)C1)C1(CCCCC1)Cc1ccccc1-2 (configuration not stated) | -1.8
Cn1ccnc1Sc1nc(Nc2ccccc2)nc(Nc2ccccc2)n1 | -6.7
Cc1nc2c(sc3nc(C)c(C)c(C)c32)c(=O)o1 | 0
CNC(=O)CN(c1ccc(OC)cc1)S(=O)(=O)c1ccc(OC)c(OC)c1 | -11.2
O=C(/C=C\c1ccccc1)NC(=S)Nc1ccc([N+](=O)[O-])cc1O | -4.6
Cc1ccc(C(=O)Nc2ccccc2C(=O)NC(Cc2c[nH]c3ccccc23)C(=O)O)cc1 (configuration not stated) | 7.1
CC1CCc2c(sc(NC(=O)c3cccnc3)c2C(=O)Nc2ccccc2)C1 (configuration not stated) | 37.1
CCc1ccc(NC2=C(Cl)C(=O)N(c3ccccc3C)C2=O)cc1 | 0.6
O=c1cc(-c2ccccc2)nc2cc(-c3cccc(F)c3)[nH]n12 | 15.9
CCOc1cccc(C(=O)Nc2cc(-c3nc4cc(C)cc(C)c4o3)ccc2C)c1 | 9.5
O=C(CCN1C(=O)c2cccc3cccc(c23)C1=O)NCc1ccc2c(c1)OCO2 | -23.3
Cc1cc(=O)[nH]c(SCC(=O)N2CCCc3ccccc32)n1 | -11
Cc1cccc(-c2nc3cc(NC(=O)COc4ccc([N+](=O)[O-])cc4)ccc3o2)c1 | 0.3
O=C(c1ccc(-c2ccc(Cl)cc2)o1)N1CCN(c2ccc([N+](=O)[O-])cc2Cl)CC1 | 5.2
O=C(/C=C/c1ccco1)N1CCC(CN2C(=O)c3cccc4cccc(c34)C2=O)CC1 | 27.9
